Out of some 7,900 compounds screened, about 400 (5.1%) showed an effect of 50% or more. This is one part of the list.

Chain of Parkinson's disease protein 7 (PARK7/DJ1) (Q99497 whole entry, looked up, the tested form may be a part): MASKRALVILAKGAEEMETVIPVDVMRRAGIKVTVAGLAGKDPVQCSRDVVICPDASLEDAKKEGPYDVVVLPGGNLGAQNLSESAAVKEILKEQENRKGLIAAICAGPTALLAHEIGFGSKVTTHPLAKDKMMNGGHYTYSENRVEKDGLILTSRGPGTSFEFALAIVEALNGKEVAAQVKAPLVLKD

The assay deals with Parkinson's disease protein 7 (PARK7/DJ1) (human, UniProt Q99497). The assay is described as follows: primary screen, percent inhibition; read as competition with a fluorescent probe by fluorescence polarization; higher = more effect of the substance. The note with it: 100 µM. In a few lines:
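Covalent fragments at 100 μM final were incubated 2 h with 0.2 μM PARK7, then 20 nM probe JYQ-107 added for a further 2 h. Fluorescence polarization read at 480/520 nm; relative FP loss versus reference controls gave remaining enzyme activity.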
On to `N#Cc1c(Cl)nc2ccccn12`, for which the Inhibition % amounted to 5.75%.
In the case of `C=C(C)Cn1c(-c2ncccn2)noc1=O`, the Inhibition % is listed as 14.8%.
As to `C=CC(=O)NCc1cccc(N2CCOCC2)n1`, the Inhibition % is on record as 6.85%.
Take `OB(O)c1ccccc1OCc1ccc(F)cc1F`: the Inhibition % was 2.02%.
In the case of `OC1(CC2CO2)CCOCC1` (stereo not drawn) it was 13.8%.
As for `CCc1ccc2occ(C(=O)NC3CC(C)OC3=O)c2c1` (stereo not drawn), the Inhibition % was determined as 6.86%.
In the case of `NCCCC1(C2OCCO2)CCCCCC1` it was 9.05%; in that of `COc1nc(C)ccc1C(=O)Nc1cccc(S(=O)(=O)F)c1`, 11.7%.
For `O=C(O)c1coc(C(=O)CCl)c1`, the Inhibition % amounted to 96.1%.
Take `C=CC(=O)N1CCn2c(C3CCCC3)nnc2C1C` (stereo not drawn): the Inhibition % came out at 7.27%.
Regarding `O=C(c1ccc2c(=O)[nH]c(S)nc2c1)N1CCCOCC1`, the Inhibition % is listed as 4.88%.
On to `N#Cc1nc(N2CC(CF)C2)ccc1Cl`, for which the Inhibition % was determined as 3.54%.
To `C=CC(=O)N1CCc2ccc(C(F)(F)F)cc2C1` belongs 6.6%; to `CS(=O)(=O)OCCC1CCCCO1` (stereo not drawn), 10.5%.
`C=CC(=O)NC(C)C1OCCc2sccc21` (stereo not drawn): the Inhibition % was 5.8%.
`CC1(C)OB(c2ccc(S(=O)(=O)NCCO)cc2)OC1(C)C`: the Inhibition % is recorded as 4.41%.
For the compound `C#CCN(C)c1cnc(C#N)cn1`, the Inhibition % is listed as 15%.
For `O=C(CN1CCSC1=O)Nc1ccc2c(c1)OCO2`, the Inhibition % came to 27.4%.
On to `O=C(CCl)Nc1ccc(N2CCCC2)cc1`, for which the Inhibition % turned out to be 7.34%.
For `Cc1nc2c(n1C1CCN(C3CCOC3=O)C1)CCCC2` (stereo not drawn), the Inhibition % is 9.93%.
For `Cn1cc(CN2C[C@@H](F)C[C@H]2CO)cc1C#N`, the Inhibition % is given as 8.87%.
As to `CC1Cc2ccccc2N1C(=O)CN1C(=O)CCC1=O` (stereo not drawn), the Inhibition % is given as -0.183%.
With `CC(C)c1cc(NC(=O)CCl)on1`, the Inhibition % amounted to 20.6%.
Consider `Cc1c(C#N)c(NC(=O)CCl)n(-c2ccccc2)c1C`, for which the Inhibition % came to 4.52%.
Take `C=CC(=O)NCC1CSc2ccccc21` (stereo not drawn): the Inhibition % was 8.41%.
To `C=CC(=O)NC1COCC1C` (stereo not drawn) belongs 12.7%; to `Cc1ccc(CN(C)C(=O)Cn2cnc(C#N)n2)c(C)c1`, 3.86%.
Regarding `CC1=C(C)CN(c2nccnc2C#N)CC1`, the Inhibition % is 26%.
To `O=C(CCl)c1ccccn1` belongs 102%; to `Cn1nccc1C=CC(=O)N1CCCC1C(=O)O` (stereo not drawn), 4.09%.
In the case of `O=S(=O)(CCCl)Cc1ccccc1` it was 4.84%; in that of `C=CC(=O)Nc1cc(C(=O)N2CCCCC2)[nH]n1`, 18.3%.
Take `C=CC(=O)NCc1csc(-c2ccco2)n1`: the Inhibition % was 14%.
Turning to `O=C1CCN1c1ccc(O)cc1`, the Inhibition % is on record as 5.37%.
In the case of `N#Cc1ccc(N[C@H]2C[C@@H]2C(F)F)cn1`, the Inhibition % was determined as 16.5%.
As for `CCN(CCC#N)S(=O)(=O)C=Cc1ccccc1Cl`, the Inhibition % is on record as 6.99%.
On to `N#Cc1ccc2[nH]ccc2n1`, for which the Inhibition % stood at 18.7%.
For the compound `C=CC(=O)N1CCN(C(=O)c2cccc(Cl)c2)CC1`, the Inhibition % was determined as 4.01%.
Turning to `Cc1ccc(NC(C)c2ccncc2)nc1C#N` (stereo not drawn), the Inhibition % amounted to 10.9%.
On to `CCc1cccc(CC)c1NC(=O)CCl`, for which the Inhibition % came to 4.13%.
As for `CC(C)n1ccc(B2OC(C)(C)C(C)(C)O2)n1`, the Inhibition % amounted to 3.12%.
In the case of `C=CC(=O)NC1CC2CCCC(C1)N2C` (stereo not drawn) it was 31.9%.
To `O=C(CCl)Nc1ccccc1Sc1ccc(Cl)cc1` belongs 5.16%; to `c1coc(COCC2CO2)c1` (stereo not drawn), 3.97%.
With `Cc1cnn(CC2CN(C3CCOC3=O)CCO2)c1` (stereo not drawn), the Inhibition % is 9.57%.
Take `CC(C)(C)OC(=O)NC1(c2ccc(B3OC(C)(C)C(C)(C)O3)cc2)CC1`: the Inhibition % is recorded as 2.75%.
On to `Fc1ccc(C2CO2)nc1` (stereo not drawn), for which the Inhibition % is recorded as 4.53%.
For the compound `CN(C)C(=O)c1cccc(NC(=O)CCl)c1`, the Inhibition % came to 12.2%.
Regarding `CNC(=O)Nc1ccc(S(=O)(=O)F)cc1`, the Inhibition % is reported as 22.2%.
To `CCCn1c(C)cc(C=C(C#N)C(=O)N2CCCC2)c1C` belongs 5.63%.
`NC(=O)c1cc(-c2ccccc2)sc1NC(=O)CCl`: the Inhibition % stood at 79.3%.
With `CC(C)C(C#N)N1CCN(C(=O)CCl)CC1` (stereo not drawn), the Inhibition % was 5.7%.
Consider `Nc1ncnc2c1ncn2CCCCl`, for which the Inhibition % came to 2.3%.
For the compound `O=C(NCc1ccn(C2CCCC2)n1)c1cccnc1S`, the Inhibition % is 1.51%.
In the case of `CS(=O)(=O)C(C#N)=Cc1ccc(Cl)cc1` it was 11.4%; in that of `O=C1CCc2cc(OCC3CO3)ccc2N1` (stereo not drawn), 3.5%.
`CSCc1cc(F)ccc1CNc1nccnc1C#N`: the Inhibition % amounted to 2.57%.
As to `CC1CC(N2CCN(C)c3ccccc3C2)C(=O)O1` (stereo not drawn), the Inhibition % turned out to be 0.987%.
Consider `O=C1OCCC1N1CCN(C(=O)c2cccs2)CC1` (stereo not drawn), for which the Inhibition % is reported as 9.27%.
In the case of `CC1CC1C(=O)N1CCC(S(=O)(=O)F)C1` (stereo not drawn), the Inhibition % is listed as 36.5%.
For `C=CC(=O)N1CCCC(CCC)CC1` (stereo not drawn), the Inhibition % worked out at 8.71%.
In the case of `O=S(=O)(F)CCSc1nnc2ccccn12` it was 53.9%; in that of `CCC(CSC)Nc1ccc(C#N)nc1` (stereo not drawn), 11.4%.
For `CC1CCC(N(C(=O)CCl)C2CC2)CC1` (stereo not drawn), the Inhibition % is reported as 74.1%.
As for `O=C(CCl)c1ccc(N2CCCC2=O)cc1`, the Inhibition % worked out at 0.305%.
In the case of `N#Cc1ncn(CCC(=O)Nc2cccc(F)c2)n1`, the Inhibition % is 1.26%.
In the case of `O=C(O)CCN1C(=O)CSC1=O` it was 13%; in that of `Cc1ccc(C=CC(=O)N2CCCC(C(=O)O)C2)s1` (stereo not drawn), 3.55%; in that of `C=CC(=O)N1CCC12CCC(CO)CC2` (stereo not drawn), 4.92%.
To `Cl.Nc1ncc(CCCl)s1` belongs 8.22%; to `Cl.NC1CCN(S(=O)(=O)C=Cc2cccc(Cl)c2)CC1`, 8.51%; to `CC(C)(C)c1cccc(C#N)n1`, 4.76%.
As for `O=C(CCl)Nc1ccccc1SC(F)F`, the Inhibition % is reported as 9.47%.
As for `Cc1ccc2cccc(OC(=O)N3CCOCC3)c2n1`, the Inhibition % was 3.15%.
`CCC1(C)NC(=O)N(NC(=O)CCl)C1=O` (stereo not drawn): the Inhibition % came to 9.56%.
For the compound `C=CC(=O)N1CCN(Cc2cc(F)ccc2OC)CC1`, the Inhibition % was -0.162%.
As to `Cc1nc(C2CC2)nc(S)c1C(=O)O`, the Inhibition % stood at 51.1%.
For `CCOc1ccc(C2CCCN2C(=O)n2ccnc2)cc1` (stereo not drawn), the Inhibition % is recorded as 2.03%.
As to `CC1(C)OB(c2ccc(NC(N)=O)cc2)OC1(C)C`, the Inhibition % was 2.48%.
Take `C=CC(=O)NC1CCCC(C(=O)N(C)C)C1` (stereo not drawn): the Inhibition % is reported as 2.64%.
Take `C=CCNC(=O)C(C#N)=Cc1ccc(OC)cc1`: the Inhibition % was 7.92%.

These data come from PMC9574860, “Chemical Toolkit for PARK7: Potent, Selective, and High-Throughput” (Journal of Medicinal Chemistry, 2022).
